Experimental data as given in article PMC6919601, “Identification of Plasmodium dipeptidyl aminopeptidase allosteric inhibitors by high throughput screening” (PLoS ONE, 2019).
Hit rate of the full screen: of about 110,000 compounds, about 230 (0.21%) showed an effect of 50% or more. The list shows a part of the results.

molecular target: DPAP1 (Plasmodium falciparum, UniProt Q8IIJ9); test: primary screen, percent inhibition; read by cleavage of a fluorogenic dipeptide substrate; higher = more effect of the substance; design: species or system P. falciparum D10 trophozoite lysates; single well
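Further: 30 min substrate incubation versus DMSO and 10 µM JCP410 controls.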

Chain of DPAP1 (Q8IIJ9 whole entry, looked up): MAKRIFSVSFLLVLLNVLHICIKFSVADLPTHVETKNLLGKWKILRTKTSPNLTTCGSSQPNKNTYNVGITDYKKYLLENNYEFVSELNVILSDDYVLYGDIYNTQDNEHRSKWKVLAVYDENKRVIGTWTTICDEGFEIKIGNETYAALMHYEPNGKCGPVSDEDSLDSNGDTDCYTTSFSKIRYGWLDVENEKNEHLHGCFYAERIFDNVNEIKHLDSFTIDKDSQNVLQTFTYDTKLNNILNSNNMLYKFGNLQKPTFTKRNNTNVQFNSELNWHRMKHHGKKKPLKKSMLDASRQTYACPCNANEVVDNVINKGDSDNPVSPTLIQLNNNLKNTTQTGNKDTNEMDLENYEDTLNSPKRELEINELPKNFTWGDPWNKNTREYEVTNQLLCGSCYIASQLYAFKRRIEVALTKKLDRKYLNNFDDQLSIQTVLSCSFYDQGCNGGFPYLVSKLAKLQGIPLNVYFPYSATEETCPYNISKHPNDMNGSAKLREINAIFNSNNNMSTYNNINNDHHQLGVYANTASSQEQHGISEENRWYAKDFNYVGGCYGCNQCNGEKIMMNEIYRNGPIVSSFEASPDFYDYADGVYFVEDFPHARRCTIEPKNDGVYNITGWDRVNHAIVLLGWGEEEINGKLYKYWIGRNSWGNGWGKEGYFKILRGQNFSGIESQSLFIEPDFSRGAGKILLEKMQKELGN

SMILES | % Inhibition @ 10 uM [%]
Cc1cccc(-n2nnc(-c3nc(-c4ccccc4F)no3)c2N)c1 | -2.76
Cc1nc2ccc(NC(=O)N(C)c3ccccc3)cc2s1 | 1.94
CSc1nn2c(=O)cc(CSc3nnc(C)s3)nc2s1 | 15
CC1=C(C(=O)Nc2cccc(C)c2C)C(c2ccccc2Br)NC(=O)N1 (centres unmarked) | -12.5
COc1ccc(-c2nnn3c2nc(NCc2ccccc2Cl)c2ccccc23)cc1 | -1.21
CCc1nccn1C(=O)CCCC(=O)O | 6.11
CCOc1ccc(CCNC(=O)c2ccc(CS(=O)(=O)c3ccc(C)cc3)o2)cc1OCC | 0.458
Cc1cc(C)c(C#N)c(SCC(=O)NCc2ccc3c(c2)OCO3)n1 | -0.68
Cc1cc(CNC(=O)c2cccc(C(F)(F)F)c2)c2ccccc2n1 | 4.61
Cc1nnc(N2CCC(C(=O)NCCCc3ccccc3)CC2)c2nn(-c3ccccc3)c(C)c12 | 5.3
COc1ccc(CCNC(=O)C2CCCN(c3ncnc4c3nc3n4CCCCC3)C2)c(OC)c1 (centres unmarked) | 2.82
Cc1ccc(N2C(=O)NC(=O)/C(=C/NCCO)C2=O)cc1C | 0.792
CCOC(=O)c1c(C)[nH]c(C)c1S(=O)(=O)N1CCC(C(=O)NCc2ccc(Cl)cc2)CC1 | -0.695
O=C(c1ccccc1)N1c2ccccc2C=Cc2ccccc21 | -0.591
O=C(O)C1CCC(CNS(=O)(=O)c2cccc3nsnc23)CC1 (centres unmarked) | -5.76
COc1ccccc1CCNC1CCC(c2ccccc2)CC1 (centres unmarked) | -1.21
Cc1[nH]c2ccccc2c1CCN(Cc1ccncc1)C(=S)NC(C)(C)C | 3.49
Cc1ccc(NC(=O)C2CCCN(c3ncnc4c3nc3n4CCCCC3)C2)nc1 (centres unmarked) | 0.00353
COC(=O)c1c(NC(=O)c2ccccc2)sc(C(=O)Nc2ccccc2F)c1C | 1.39
COC(=S)/N=C(\NCS(=O)(=O)c1ccc(C)cc1)c1ccccc1 | -5.28
CCOc1ccc(CSc2nnc(N)s2)cc1-n1nc2ccccc2n1 | -3.34
O=C(NCCN1CCOCC1)c1nnc(Cc2cccc(F)c2)o1 | 4.24
CCN(CC)CCOC(=O)C1(c2ccc([N+](=O)[O-])cc2)CCCC1 | 3.44
COc1cc(OC)cc(OCC(O)Cn2cnc3cc(C)c(C)cc32)c1 (centres unmarked) | -1.11
Cc1ccc(/C=C2\SC(=O)N(Cc3ccc(F)cc3)C2=O)o1 | -4.82

SMILES | % Inhibition @ 10 uM [%]
COc1cc2c(cc1OC)C(=C(Cl)Cl)NC(C)(C)C2 | -2.15
Cc1cc(C(=O)Nc2ccc3oc(-c4cccc(Br)c4)nc3c2)ccc1[N+](=O)[O-] | 2.54
CCCOc1ccc(-c2nc(N(CC)CC)c3ccccc3n2)cc1 | 0.146
CC(=O)Nc1ccc(NC(=O)COc2cc(C)c(Br)c(C)c2)cc1 | 14.7
CCOC(=O)C1CCCCN1Cc1ccccc1C(F)(F)F (centres unmarked) | 1.55
Cc1ccc(COc2ccc3c(C)cc(=O)oc3c2)cc1 | -5.9
CCn1c(=N)c(C(=O)OC)cc2c(=O)n3cc(C)ccc3nc21 | -9.1
CC1CN(C)C(C)c2c1oc1c([N+](=O)[O-])cccc21 (centres unmarked) | -4.58
Cn1c(=O)c2c(nc(CN3CCC(Cc4ccccc4)CC3)n2CCCO)n(C)c1=O | -3.23
O=C(N1CCN(S(=O)(=O)c2ccc(Cl)cc2)CC1)N(c1ccccc1)c1ccccc1 | 5.31
COc1ccccc1-c1nc(-c2ccc(Cl)cc2Cl)no1 | -1.4
COCc1nc(-c2cc3ccc(C)cc3nc2O)no1 | -5.62
CCn1c(C(=O)N2CCC(C(=O)NCc3ccc(C)cc3)CC2)cc2sccc21 | 1.77
COc1ccc(-c2c(C)nn3c(N4CCOCC4)cc(C)nc23)cc1OC | -11.6
CCOc1ccc(C2=CC(=O)C(c3ccccc3)CC2)cc1 (centres unmarked) | 5.77
Cc1ccc(CN2CCN(c3ccccn3)CC2)c(C)c1 | 4.81
Cc1ccc2c(Cl)c(C(=O)N(Cc3ccccc3F)C3CCS(=O)(=O)C3)sc2c1 (centres unmarked) | 0.366
COc1ccc(-c2cc(N)n(S(=O)(=O)c3ccc(F)c(C)c3)n2)c(OC)c1 | 1.15
COc1cc(NC(=O)C2CC2)c(OC)cc1Cl | 0.219
CCN(CC)C(=O)C1CCCN(Cc2cccc([N+](=O)[O-])c2)C1 (centres unmarked) | -3.95
CCc1ccc(-c2cc3c(=O)n(CC(=O)NCc4ccc(C)cc4)nc(C)n3n2)cc1 | -1.08
COc1cc(CN2CCN(C(=O)c3ccco3)CC2)cc(OC)c1OC | 7.1
O=C1OC(/C=C/c2cccc(Cl)c2Cl)=NC/1=C\c1ccco1 | 11.5
Cc1cc(C(=O)N2CCC(C)CC2)c2c(C)nn(-c3ccccc3Cl)c2n1 | 3.75
O=C(O)C1C2C=CC(C2)C1C(=O)N1CCN(C/C=C/c2ccccc2)CC1 (centres unmarked) | -2.45

SMILES | % Inhibition @ 10 uM [%]
CC1CC(C)CN(CCCNC(=O)c2cn(C3CCCC3)c(=O)c3c2c2ccccc2n3C)C1 (centres unmarked) | 0.163
Cc1ccc(S(=O)(=O)N(C)Cc2nc(-c3ccccn3)no2)cc1 | 0.843
O=C(O)c1cccc(COc2ccc(Br)cc2)c1 | 1.88
Cc1cc(C)cc(C(=O)N(CCc2ccccc2)C2CC3CCC(C2)N3C)c1 (centres unmarked) | 6.09
Cc1ccc(S(=O)(=O)N2CCC(C(=O)NCCC3=CCCCC3)CC2)cc1 | -5.62
COc1ccc(NC(=O)CNS(=O)(=O)c2cc(Cl)ccc2Cl)cc1 | 10.6
CC(NS(=O)(=O)c1ccc(OCC(=O)NC2CCCC2)cc1)c1ccccc1 (centres unmarked) | 1.78
NC1=NC(=O)/C(=C/c2ccc(Br)s2)S1 | -6.68
COC(=O)c1sc(NC(=O)CSc2nncn2C)nc1C | 9.03
COCCNC(=O)c1cc(S(=O)(=O)N2CCOCC2)ccc1C | 0.503
Cn1c(=O)c2c(nc(NCCN3CCOCC3)n2Cc2cccc(F)c2)n(C)c1=O | -6.98
C=CCNC(=S)Nc1ccccc1 | 1.49
Cc1cc2cc(CNC(=O)c3ccccc3C(=O)O)ccc2[nH]1 | 1.55
CC1=C(C(=O)Nc2ccc(Br)cn2)C(c2ccccc2Cl)C2=C(O)CCCC2=N1 (centres unmarked) | -1.1
Cc1cc(N2CCN(S(=O)(=O)c3ccc(Cl)c(Cl)c3)CC2)c2ccccc2n1 | -7.37
CC(C)c1ccc(CN2CCCC(C(N)=O)C2)cc1 (centres unmarked) | -1.21
NS(=O)(=O)c1ccc(-n2ncc3c(O)nc(SCC(=O)NCc4ccco4)nc32)cc1 | 1.26
CCOC(=O)N1CCC(c2[nH]nc(O)c2C)CC1 | -4.69
Cc1ccc(OCC(=O)Nc2ncccc2C)cc1 | -0.0217
Nc1ccc(-c2cc(C(=O)O)c3ccccc3n2)cc1 | 6.96
C#CCN1C(=O)C(O)(CC(=O)c2ccc(CC)cc2)c2ccccc21 (centres unmarked) | -0.992
COc1ccc(S(=O)(=O)Nc2cc(S(N)(=O)=O)ccc2C)cc1 | 2.08
COC(=O)C1=CN(Cc2ccc(OC)c(OC)c2)C=C(C(=O)OC)C1c1cccc(O)c1 | -5.05
CCC1C(=O)C(C)(C)C(=O)OC1c1ccc(Cl)cc1Cl (centres unmarked) | 7.1
CCOC(=O)c1cnc2ccc(OCC)cc2c1N(C)Cc1ccccc1 | 0.231

SMILES | % Inhibition @ 10 uM [%]
CC1CCN(S(=O)(=O)c2ccc3nc(-c4cccnc4)cc(C(=O)NC4CC4)c3c2)CC1 | -0.971
Cn1c(=O)[nH]c(=O)c2c1nc(SCC(=O)Nc1ccccc1)n2CCCc1ccccc1 | -4.76
O=C(O)C1CC(c2ccccc2)=Nc2ccccc2S1 (centres unmarked) | -0.0372
CCCN(CCO)CCCc1ccccc1 | -3.15
N#Cc1c(NC(=O)c2ccncc2)sc2c1CCCCCC2 | 2.36
COc1ccc(C2C3=C(O)CCCC3=Nc3ccc4nc(C)ccc4c32)c(OC)c1 (centres unmarked) | 6.98
COC(=O)c1[nH]c2c(c1C)C(=O)CC(c1ccccc1Cl)C2 (centres unmarked) | -0.668
O=C(Cn1c(=O)[nH]c2ccsc2c1=O)NCc1ccccc1Cl | 0.121
CCN1C(=O)C(=CNc2ccc3c(c2)-c2ccccc2C3)C(=O)N(CC)C1=O | -0.996
Cc1cccc(C)c1NC(=O)C1(NC(=O)C(C)NC(=O)c2ccccc2C(=O)O)CCCC1 (centres unmarked) | 7.66
Cc1ccc(S(=O)(=O)N(CC(=O)NC2CC3CCC2C3)c2cccc(Cl)c2)cc1 (centres unmarked) | 8.87
Cc1ccc(Cl)cc1N1CCN(C(=O)c2ccc(N(C)S(C)(=O)=O)cc2)CC1 | 4.11
Cc1cccc(C)c1OCc1nc2c3cnn(Cc4ccccc4)c3ncn2n1 | -2.14
COc1ccc(CCn2c(=O)c3cccnc3n(Cc3cccc(C(F)(F)F)c3)c2=O)cc1OC | -7.18
O=C(NCCc1ccccc1)c1ccccc1[SH](=O)=O | -10.6
Cc1cccc(C2CC(=O)NC3=C2C(=O)CC(c2ccccc2Cl)C3)c1 (centres unmarked) | 1.97
CCCCNC(=O)CSc1nc2ccsc2c(=O)n1C1CCN(C(=O)OCC)CC1 | -2.92
CCOc1ccc(CCNC(=O)CCCn2nc(C)n3c(cc4sccc43)c2=O)cc1OCC | -1.58
COc1ccccc1-n1c(S)nnc1-c1cc(C)nn1C | 5.52
CC(C)CCN1CC(C(=O)NC(C)C)CC1=O (centres unmarked) | 0.514
Cc1ccc(Sc2ccc(C=C3C(=O)NC(=O)NC3=O)o2)cc1 | -4.11
Cc1nn(CCCC(=O)N2CCC(C(N)=O)CC2)c(=O)c2c1sc1ccccc12 | -4.78
COc1ccc(C2C(C(=O)c3ccco3)=C(O)C(=O)N2CC2CCCO2)cc1 (centres unmarked) | 3.66
